# From US20250179140A1 (Bristol-Myers Squibb, published 2025)
# T1: hCD122(27-241)-hFc-D/hCD132(23-263)-hFc-K heterodimeric Fc fusion (hIL2-Rb/g) (human, UniProt P14784 27-241; P31785 23-263)
# T1 construct: range 27-241;range 23-263; Captured via Protein A immobilised on a CM5 chip; also called sIL2Rβ/IL2Rγ heterodimer; sIL2Rβ/IL2Rγ heteroreceptors; not shown: hFc-D: human Fc, one side of a heterodimeric pair; hFc-K: human Fc, other side of the heterodimeric pair
# T1 sequence (looked up) 1: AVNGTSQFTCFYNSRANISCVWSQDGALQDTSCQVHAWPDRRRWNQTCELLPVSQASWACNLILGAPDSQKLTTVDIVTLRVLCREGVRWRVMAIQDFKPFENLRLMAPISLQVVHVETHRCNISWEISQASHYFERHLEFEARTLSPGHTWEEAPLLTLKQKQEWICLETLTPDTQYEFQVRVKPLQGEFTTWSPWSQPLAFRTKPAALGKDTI
# T1 sequence (looked up) 2: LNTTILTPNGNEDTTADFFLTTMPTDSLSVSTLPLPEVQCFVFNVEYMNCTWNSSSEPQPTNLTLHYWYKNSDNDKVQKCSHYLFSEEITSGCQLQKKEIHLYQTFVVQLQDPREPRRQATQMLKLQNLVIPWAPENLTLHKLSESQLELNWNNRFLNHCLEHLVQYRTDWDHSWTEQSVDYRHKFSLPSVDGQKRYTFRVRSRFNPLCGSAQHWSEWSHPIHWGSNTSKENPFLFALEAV
# T2: IL2R endogenously expressed on the T cell line, Kit225 (human, UniProt P01589 22-272; P14784 27-551; P31785 23-369)
# T2 sequence (looked up) 1: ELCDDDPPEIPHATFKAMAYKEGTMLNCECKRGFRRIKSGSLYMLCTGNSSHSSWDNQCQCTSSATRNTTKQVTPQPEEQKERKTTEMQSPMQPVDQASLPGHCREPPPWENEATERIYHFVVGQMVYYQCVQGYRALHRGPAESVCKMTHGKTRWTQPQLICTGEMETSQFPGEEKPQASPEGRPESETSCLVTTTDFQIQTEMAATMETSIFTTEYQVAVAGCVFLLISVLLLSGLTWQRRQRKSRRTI
# T2 sequence (looked up) 2: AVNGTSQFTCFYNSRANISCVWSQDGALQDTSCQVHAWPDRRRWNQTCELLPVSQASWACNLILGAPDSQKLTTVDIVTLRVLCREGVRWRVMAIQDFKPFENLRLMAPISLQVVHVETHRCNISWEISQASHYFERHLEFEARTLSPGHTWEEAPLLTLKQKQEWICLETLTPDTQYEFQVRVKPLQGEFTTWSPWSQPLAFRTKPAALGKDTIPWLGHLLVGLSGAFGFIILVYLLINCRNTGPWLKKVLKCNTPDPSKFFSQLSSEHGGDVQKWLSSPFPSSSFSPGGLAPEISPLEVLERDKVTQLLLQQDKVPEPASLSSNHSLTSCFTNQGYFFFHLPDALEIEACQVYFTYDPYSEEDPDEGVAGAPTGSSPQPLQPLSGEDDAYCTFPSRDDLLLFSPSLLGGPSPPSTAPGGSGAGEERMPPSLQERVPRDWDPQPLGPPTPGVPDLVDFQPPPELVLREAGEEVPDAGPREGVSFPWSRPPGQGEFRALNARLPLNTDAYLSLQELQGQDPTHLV
# T2 sequence (looked up) 3: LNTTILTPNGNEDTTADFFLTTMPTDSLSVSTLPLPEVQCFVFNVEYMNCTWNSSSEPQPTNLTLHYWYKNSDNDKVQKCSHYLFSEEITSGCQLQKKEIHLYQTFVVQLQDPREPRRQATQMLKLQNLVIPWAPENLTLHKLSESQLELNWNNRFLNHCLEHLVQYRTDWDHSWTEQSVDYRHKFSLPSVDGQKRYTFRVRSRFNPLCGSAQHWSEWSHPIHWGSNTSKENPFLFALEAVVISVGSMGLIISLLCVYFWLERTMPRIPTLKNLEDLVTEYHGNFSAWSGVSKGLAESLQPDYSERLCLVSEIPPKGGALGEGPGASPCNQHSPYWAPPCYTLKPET
# T3: biot-hCD25-BioP-TVMV-His which had been His cleaved (hCD25) (human, UniProt P01589 22-240, biotinylated (biot-; BioP tag), captured on streptavidin)
# T3 construct: Soluble human CD25 captured at low density (~300 RU) on an SA sensor chip; also called human sCD25; sCD25; not shown: BioP-TVMV tag remnant after cleavage of the His tag
# T3 sequence (looked up): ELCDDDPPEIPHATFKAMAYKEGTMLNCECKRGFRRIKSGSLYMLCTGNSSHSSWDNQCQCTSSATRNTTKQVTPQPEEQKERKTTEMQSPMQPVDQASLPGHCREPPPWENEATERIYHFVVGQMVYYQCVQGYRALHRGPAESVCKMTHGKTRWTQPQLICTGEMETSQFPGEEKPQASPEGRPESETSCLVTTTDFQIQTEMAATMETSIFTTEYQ
# T4: IL2R on human primary cells (PBMCs or whole blood: Treg, CD4 foxp3- non-Treg, CD8 T cells, NK cells) (human, UniProt P01589 22-272; P14784 27-551; P31785 23-369)
# T4 sequence (looked up) 1: T2 sequence (looked up) 1
# T4 sequence (looked up) 2: T2 sequence (looked up) 2
# T4 sequence (looked up) 3: T2 sequence (looked up) 3
# B1: IL2(C145V)-CD25([…]) (other)
# chain: [sequence of about 150 residues with changes not given]GGGSGGGSGGGSELCDDDPPEIPHATFKAMAYKEGTMLNCECKRGFRRIKSGSLYMLCTGNSSHSSWDNQCQCTSSATRNTTKQVTPQPEEQKERKTTEMQSPMQPVDQASLPGHCREPPPWENEATERIYHFVVGQMVYYQCVQGYRALHRGPAESVCKMTHGKTRWTQPQLICTGEMETSQFPGEEKPQASPEGRPESETSCLVTTTDFQIQTEMAATMETSIFTTEYQ
# notes: also called IL2-CV-CD25([…])
# B2: IL2([…])-(G3S)3-CD25([…]) (other)
# chain: [sequence of about 150 residues not given]GGGSGGGSGGGSELCDDDPPEIPHATFKAMAYKEGTMLNCECKRGFRRIKSGSLYMLCTGNSSHSSWDNQCQCTSSATRNTTKQVTPQPEEQKERKTTEMQSPMQPVDQASLPGHCREPPPWENEATERIYHFVVGQMVYYQCVQGYRALHRGPAESVCKMTHGKTRWTQPQLICTGEMETSQFPGEEKPQASPEGRPESETSCLVTTTDFQIQTEMAATMETSIFTTEYQ
# notes: also called IL2-CD25([…]); hIL2-CD25([…])
# B3: IL2-CD25([…])-Fc1.1 SEQ ID NO: 68 (Fc fusion)
# chain: [sequence of about 150 residues not given]GGGSGGGSGGGSELCDDDPPEIPHATFKAMAYKEGTMLNCECKRGFRRIKSGSLYMLCTGNSSHSSWDNQCQCTSSATRNTTKQVTPQPEEQKERKTTEMQSPMQPVDQASLPGHCREPPPWENEATERIYHFVVGQMVYYQCVQGYRALHRGPAESVCKMTHGKTRWTQPQLICTGEMETSQFPGEEKPQASPEGRPESETSDKTHTCPPCPAPEAEGAPSVFLFPPKPKDTLMISRTPEVTCVVVDVSHEDPEVKFNWYVDGVEVHNAKTKPREEQYNSTYRVVSVLTVLHQDWLNGKEYKCKVSNKALPSSIEKTISKAKGQPREPQVYTLPPSREEMTKNQVSLTCLVKGFYPSDIAVEWESNGQPENNYKTTPPVLDSDGSFFLYSKLTVDKSRWQQGNVFSCSVMHEALHNHYTQKSLSLSPG
# notes: also called hIL2-CD25([…])-Fc1.1 (bivalent)
# B4: IL2-CD25([…]) (other)
# chain: [sequence of about 150 residues not given]GGGSGGGSGGGSELCDDDPPEIPHATFKAMAYKEGTMLNCECKRGFRRIKSGSLYMLCTGNSSHSSWDNQCQCTSSATRNTTKQVTPQPEEQKERKTTEMQSPMQPVDQASLPGHCREPPPWENEATERIYHFVVGQMVYYQCVQGYRALHRGPAESVCKMTHGKTRWTQPQLICTGE
# notes: also called hIL2-CD25([…])
# B5: hIL2-CD25([…])-His (other)
# chain: [sequence of about 150 residues not given]GGGSGGGSGGGSELCDDDPPEIPHATFKAMAYKEGTMLNCECKRGFRRIKSGSLYMLCTGNSSHSSWDNQCQCTSSATRNTTKQVTPQPEEQKERKTTEMQSPMQPVDQASLPGHCREPPPWENEATERIYHFVVGQMVYYQCVQGYRALHRGPAESVCKMTHGKTRWTQPQLICTGEMETSQFPGEEKPQASPEGRPESETSGGHHHHHH
# B6: hIL2-CD25([…])-His (other)
# chain: [sequence of about 150 residues not given]GGGSGGGSGGGSELCDDDPPEIPHATFKAMAYKEGTMLNCECKRGFRRIKSGSLYMLCTGNSSHSSWDNQCQCTSSATRNTTKQVTPQPEEQKERKTTEMQSPMQPVDQASLPGHCREPPPWENEATERIYHFVVGQMVYYQCVQGYRALHRGPAESVCKMTHGKTRWTQPQLICTGEGGHHHHHH
# B7: IL2-T3A-CD25([…])-N89Q-T95A-T106A (SEQ ID NO: 202) (other)
# chain: [sequence of about 150 residues not given]GGGSGGGSGGGSELCDDDPPEIPHATFKAMAYKEGTMLNCECKRGFRRIKSGSLYMLCTGNSSHSSWDNQCQCTSSATRQTTKQVAPQPEEQKERKATEMQSPMQPVDQASLPGHCREPPPWENEATERIYHFVVGQMVYYQCVQGYRALHRGPAESVCKMTHGKTRWTQPQLICTGE
# notes: also called hIL2-CD25 (quad aglycosylated)
# B8: IL2(D40T)-CD25 SEQ ID NO: 70 (other)
# chain: [sequence of about 150 residues with changes not given]GGGSGGGSGGGSELCDDDPPEIPHATFKAMAYKEGTMLNCECKRGFRRIKSGSLYMLCTGNSSHSSWDNQCQCTSSATRNTTKQVTPQPEEQKERKTTEMQSPMQPVDQASLPGHCREPPPWENEATERIYHFVVGQMVYYQCVQGYRALHRGPAESVCKMTHGKTRWTQPQLICTGEMETSQFPGEEKPQASPEGRPESETS
# B9: IL2(V111K)-CD25 SEQ ID NO: 69 (other)
# chain: [sequence of about 150 residues with changes not given]GGGSGGGSGGGSELCDDDPPEIPHATFKAMAYKEGTMLNCECKRGFRRIKSGSLYMLCTGNSSHSSWDNQCQCTSSATRNTTKQVTPQPEEQKERKTTEMQSPMQPVDQASLPGHCREPPPWENEATERIYHFVVGQMVYYQCVQGYRALHRGPAESVCKMTHGKTRWTQPQLICTGEMETSQFPGEEKPQASPEGRPESETS
# B10: Fc-(IL2(V91K)CD25)2 bivalent SEQ ID NO: 203 (Fc fusion)
# chain: [sequence of about 350 residues with a human IgG1 Fc not given]GGGSGGGSGGGSELCDDDPPEIPHATFKAMAYKEGTMLNCECKRGFRRIKSGSLYMLCTGNSSHSSWDNQCQCTSSATRNTTKQVTPQPEEQKERKTTEMQSPMQPVDQASLPGHCREPPPWENEATERIYHFVVGQMVYYQCVQGYRALHRGPAESVCKMTHGKTRWTQPQLICTGEMETSQFPGEEKPQASPEGRPESETS
# Molecular target: T1, hCD122(27-241)-hFc-D/hCD132(23-263)-hFc- …
# Assay: SPR, observed equilibrium KD; hIL2-Rb/g Fc heterodimer captured via Protein A on CM5 chip
row,Kd,Binder
1,63 nM,B1
2,44 nM,B2
3,100 nM,B3
4,54 nM,B4

# Molecular target: T2, IL2R endogenously expressed on the T …
# Assay: cell-based or functional assay
row,"EC50 (ng/ml), IRF1-GAS-Luc reporter in Kit225 cells",Binder
1,210 ng/mL,B5
2,145 ng/mL,B6
3,3410 ng/mL,B3
4,49 ng/mL,B4

# Molecular target: T2, IL2R endogenously expressed on the T …
# Assay: cell-based or functional assay
# Remark: another data set of the same source
"Potency EC50 ng/ml, Kit225 reporter cells","Ymax (%) % of wt IL2 response, Kit225 reporter cells",Binder
39.4 ng/mL,85%,B7

# Molecular target: T3, biot-hCD25-BioP-TVMV-His which had been …
# Assay: SPR, observed equilibrium KD; hCD25 captured on streptavidin chip
row,Kd,Binder
1,2800 nM,B8
2,1900 nM,B9
3,3000 nM,B10
4,2100 nM,B1
5,2400 nM,B2
6,2500 nM,B3
7,1600 nM,B4
8,1900 nM,B7

# Molecular target: T4, IL2R on human primary cells (PBMCs or …)
# Assay: cell-based or functional assay
"EC50 for pSTAT5 induction in Treg, human PBMCs","EC50 for pSTAT5 induction in Treg, human whole blood",Binder
10 ng/ml,22 ng/ml,B2
4.6 ng/ml,,B4
